The text below walks through data of PMC4336329 (PLoS ONE, 2015).

In all, about 310,000 compounds went through this assay and about 2,200 (0.71%) showed an effect of 50% or more. The effect is printed as a negative number. The list shows a part of the results.

The experiment deals with human ether-à-go-go-related gene (hERG) potassium channel (human, UniProt Q12809). Description: primary screen, population patch clamp on CHO cells stably expressing hERG.
human ether-à-go-go-related gene (hERG) potassium channel, sequence (Q12809 whole entry, looked up): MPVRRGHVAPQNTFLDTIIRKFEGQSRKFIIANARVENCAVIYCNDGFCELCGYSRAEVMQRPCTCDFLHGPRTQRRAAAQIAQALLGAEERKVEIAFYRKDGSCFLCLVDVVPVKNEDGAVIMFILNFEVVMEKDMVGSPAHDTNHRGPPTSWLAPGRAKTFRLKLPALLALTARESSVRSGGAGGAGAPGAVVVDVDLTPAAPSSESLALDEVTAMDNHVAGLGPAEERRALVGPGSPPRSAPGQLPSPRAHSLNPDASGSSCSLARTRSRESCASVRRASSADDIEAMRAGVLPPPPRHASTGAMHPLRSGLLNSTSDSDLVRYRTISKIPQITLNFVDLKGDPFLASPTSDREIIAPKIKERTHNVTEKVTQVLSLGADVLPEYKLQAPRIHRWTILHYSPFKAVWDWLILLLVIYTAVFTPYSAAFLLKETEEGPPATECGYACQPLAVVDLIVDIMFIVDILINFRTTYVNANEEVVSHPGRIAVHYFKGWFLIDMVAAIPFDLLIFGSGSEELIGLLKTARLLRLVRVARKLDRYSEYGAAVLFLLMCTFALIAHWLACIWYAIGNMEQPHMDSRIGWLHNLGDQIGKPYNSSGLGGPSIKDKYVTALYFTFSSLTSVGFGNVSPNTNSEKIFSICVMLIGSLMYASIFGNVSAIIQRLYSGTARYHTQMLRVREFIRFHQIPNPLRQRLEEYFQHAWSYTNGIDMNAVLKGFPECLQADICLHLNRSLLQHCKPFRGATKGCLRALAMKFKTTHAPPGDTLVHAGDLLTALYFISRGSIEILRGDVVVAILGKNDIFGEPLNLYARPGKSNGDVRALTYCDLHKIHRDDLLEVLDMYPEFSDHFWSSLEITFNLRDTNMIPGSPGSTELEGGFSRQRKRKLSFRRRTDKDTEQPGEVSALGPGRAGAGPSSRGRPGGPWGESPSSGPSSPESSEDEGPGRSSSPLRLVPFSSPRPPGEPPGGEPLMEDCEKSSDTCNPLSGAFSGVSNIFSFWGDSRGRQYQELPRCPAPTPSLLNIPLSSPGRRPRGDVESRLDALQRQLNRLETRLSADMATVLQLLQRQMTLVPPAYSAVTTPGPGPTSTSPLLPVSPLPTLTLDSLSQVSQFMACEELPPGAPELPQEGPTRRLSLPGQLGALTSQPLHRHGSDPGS
As for `Cc1cccc(N2CCN(C(=O)c3c(-c4ccccc4Cl)noc3C)CC2)c1C`, the “hERG current change (%, negative = inhibition) at 1uM” value was 11.4%. In the case of `CCC(=O)Nc1cccc(NC(=O)CSc2nnnn2C)c1`, the “hERG current change (%, negative = inhibition) at 1uM” value was -34.5%. With `C=CCOc1c(Cl)cc(CNc2ccc3[nH]c(=O)[nH]c3c2)cc1OC` the figure was 11.3%. With `CCOc1ccccc1N=C1NC(=O)CS1` the figure was 4.5%. Under `O=C(Cc1ccc(-c2ccccc2)cc1)NCCN1CCOCC1` stands 11.7%; under `O=C(CSc1nnc(-c2ccncc2)o1)c1cccc([N+](=O)[O-])c1`, 7.71%.

For `CCCOc1ccc(-c2nnc(N)s2)cc1`, the “hERG current change (%, negative = inhibition) at 1uM” value turned out to be 13.5%. Under `CSc1c(C#N)c(N)c(C#N)c2c1COC(C)(C)C2` stands -1.89%; under `Cc1ccc(OCCC(=O)OCC(=O)N2CCN(S(=O)(=O)c3ccc(C)cc3)CC2)cc1`, -19.9%; under `O=C(NCc1ccccc1)c1cc[n+](CC(=O)c2cccs2)cc1.[Br-]`, -1.16%. As to `Cc1ccc(S(=O)(=O)NCC(C)NS(=O)(=O)c2ccc(C)cc2)cc1` (centres unmarked), the “hERG current change (%, negative = inhibition) at 1uM” value stood at 11%. Consider `N/C(Cc1ccc([N+](=O)[O-])cc1)=N\OC(=O)c1ccccc1Br`, for which the “hERG current change (%, negative = inhibition) at 1uM” value is -33.3%. With `CC(C)Cc1nc2n[nH]c(N)c2c2c1COC(C)(C)C2` the figure was 5.06%; with `Cc1ccc(-n2c(-c3ccccc3)n[nH]c2=S)c(C)c1`, 17.4%. Under `Cc1ccc(NC(=O)c2ccc(OCc3c(C)noc3C)cc2)cc1` stands 2.98%; under `Cc1cc(C)n2c(SCC(=O)NC3CCCC(C)C3C)nnc2n1` (centres unmarked), 12.4%. For the compound `CCCN1C(=O)/C(=C/c2nc3ccccc3c(=O)[nH]2)c2ccccc21`, the “hERG current change (%, negative = inhibition) at 1uM” value turned out to be 4.62%. As for `COc1ccccc1NC(=O)NCCc1ccccc1`, the “hERG current change (%, negative = inhibition) at 1uM” value worked out at 15.2%. In the case of `Cc1ccc(C(=O)N/N=C/c2cccc(OC(=O)/C=C/c3ccco3)c2)cn1`, the “hERG current change (%, negative = inhibition) at 1uM” value is given as 20.1%. With `Cc1ccccc1OCc1nc2c3c(ncn2n1)-c1ccccc1CC31CCCC1` the figure was 12.6%; with `Cc1cc(C)nc(NC(=O)C(C)C)n1`, 14%. Consider `O=C(COC(=O)c1cc2ccccc2oc1=O)c1cccc([N+](=O)[O-])c1`, for which the “hERG current change (%, negative = inhibition) at 1uM” value is 1.78%. Under `O=C(Nc1ccc(S(=O)(=O)N2CCOCC2)cc1)C1CC1` stands 11.2%; under `CC(O)(CS(=O)(=O)c1ccccc1)C(=O)Nc1ccc(C(F)(F)F)cc1` (centres unmarked), -5.57%.

Take `CS(=O)(=O)Nc1cccc(C(=O)CC2(O)C(=O)Nc3ccccc32)c1` (centres unmarked): the “hERG current change (%, negative = inhibition) at 1uM” value was 10.6%. For the compound `COC(=O)c1ccc(NC(=O)C2CCCN2S(=O)(=O)c2ccc(F)cc2)cc1` (centres unmarked), the “hERG current change (%, negative = inhibition) at 1uM” value came to 6.32%. Under `CCN(Cc1cnn(C)c1)C(=O)c1ccc2nc(Cc3cccc(Cl)c3)oc2c1` stands 15.3%; under `CSc1ccccc1NC(=O)c1ccccc1N(Cc1ccccc1)S(C)(=O)=O`, 14.4%; under `O=C(NCC(=O)N(c1ccccc1)C(C(=O)NCC1CCCO1)c1ccccc1)c1cccs1` (centres unmarked), 5.4%. As to `COc1ccnc(N2CCN(c3cccc(C(F)(F)F)c3)CC2)c1C#N`, the “hERG current change (%, negative = inhibition) at 1uM” value was 30.1%. Under `COc1ccc(OC)c(S(=O)(=O)Nc2ccc(OCC(=O)O)cc2)c1` stands 18.5%; under `CCC(=O)/C=C1/Sc2ccc(OC)cc2N1CC`, 5.9%.

Turning to `CN(C(=O)c1ccccc1C(=O)OCC(=O)Nc1ccc(OC(F)F)cc1)c1ccccc1`, the “hERG current change (%, negative = inhibition) at 1uM” value is on record as -7.78%. As for `CCOC(=O)c1nc2ccccc2c(C)c1C.Cl`, the “hERG current change (%, negative = inhibition) at 1uM” value came out at 6.1%.

On to `Cc1ccccc1-n1nnnc1SCC(=O)NNC(=O)c1ccc(NC(=O)CC#N)cc1`, for which the “hERG current change (%, negative = inhibition) at 1uM” value is reported as 11%. With `CCOc1ccc(CCNC(=O)C2CCC(=O)N2C2CCCCC2)cc1OCC` (centres unmarked), the “hERG current change (%, negative = inhibition) at 1uM” value stood at 5.45%. With `CCC(C)NC(=O)CN1C(=O)COc2ccc(S(=O)(=O)N3CCOCC3)cc21` (centres unmarked) the figure was 14.4%.

In the case of `O=C(CN1CCN(C(C(=O)Nc2ccc(Cl)cc2C(F)(F)F)c2ccccc2)CC1)NC1CC1` (centres unmarked), the “hERG current change (%, negative = inhibition) at 1uM” value was -50.1%. With `CCCCN(C)C(=O)c1nc2ccccn2c1CN1CCC[C@H]1C(=O)OC`, the “hERG current change (%, negative = inhibition) at 1uM” value was found to be 2.36%. With `COc1cccc(NC(=O)c2cccc(C(=O)Nc3cccc(OC)c3)c2)c1` the figure was 14.9%.

Turning to `COc1ccc(C(Nc2cccc([N+](=O)[O-])c2)P(=O)(OC(C)C)OC(C)C)cc1` (centres unmarked), the “hERG current change (%, negative = inhibition) at 1uM” value is given as 5.44%. With `COc1ccc2nc(NC(=O)CSc3nnnn3C3CCCCC3)sc2c1` the figure was 1.66%; with `COc1cccc(-n2nnc3c(=O)n(Cc4cccc(C)c4)cnc32)c1`, 4.92%; with `CC(C(=O)NCc1ccco1)n1cc([N+](=O)[O-])cn1` (centres unmarked), 20.9%.

For `O=C(NC1CC1)c1cc(F)c(F)cc1Cl`, the “hERG current change (%, negative = inhibition) at 1uM” value was 6.81%. As for `CCOC(=O)c1[nH]c2cc(OC)c(OC)cc2c1NC(=O)CN(C)C1CCCCC1`, the “hERG current change (%, negative = inhibition) at 1uM” value is given as 3.06%. Consider `CCOc1ccc(CCNC(=O)CS(=O)Cc2nc(-c3ccc(C)cc3)oc2C)cc1` (centres unmarked), for which the “hERG current change (%, negative = inhibition) at 1uM” value is 11.4%.

For `COc1ccccc1NC(=S)NNC(=O)c1nn(C)cc1Cl`, the “hERG current change (%, negative = inhibition) at 1uM” value is on record as 8.09%.

Turning to `O=C(c1ccco1)N1CCN(C(=O)c2cc(-c3ccccn3)nc3ccc(Cl)cc23)CC1`, the “hERG current change (%, negative = inhibition) at 1uM” value is reported as -1.55%. Under `O=C(CSc1nnc(NC(=O)C2CC2)s1)Nc1cccc(F)c1` stands 15.3%; under `COc1cc(NC(=O)C2CC(=O)N(Cc3ccco3)C2)c(OC)cc1Cl` (centres unmarked), 7.92%; under `COC(=O)c1ccccc1NC(=O)c1cccc(NC(=O)CSCc2ccccc2)c1C`, 1.79%. For the compound `CC(C)(C)OC(=O)N1CCC(NC(=O)c2[nH]cnc2C(=O)Nc2ccc(Cl)cc2)CC1`, the “hERG current change (%, negative = inhibition) at 1uM” value amounted to 16.9%. Under `Cc1ccc(-n2nnnc2SCn2nnc3ccccc3c2=O)cc1` stands 6.4%; under `COc1ccc(NS(=O)(=O)c2cnc[nH]2)cc1`, 12.8%; under `N=c1c(C(=O)NC2CCCC2)cc2c(=O)n3ccccc3nc2n1C1CCCC1`, -89.1%.
